Experimental findings from PMC4336329 (PLoS ONE, 2015) are described below.

Out of some 310,000 compounds screened, about 14,000 (4.5%) showed an effect of 50% or more. Effects have a minus sign here. This is one part of the list.
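Also: peak tail current of the secondary pulse compared with the same well before compound.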

In the assay the target is human ether-à-go-go-related gene (hERG) potassium channel (human, UniProt Q12809). In words: primary screen, population patch clamp on CHO cells stably expressing hERG.
Sequence of human ether-à-go-go-related gene (hERG) potassium channel (Q12809 whole entry, looked up): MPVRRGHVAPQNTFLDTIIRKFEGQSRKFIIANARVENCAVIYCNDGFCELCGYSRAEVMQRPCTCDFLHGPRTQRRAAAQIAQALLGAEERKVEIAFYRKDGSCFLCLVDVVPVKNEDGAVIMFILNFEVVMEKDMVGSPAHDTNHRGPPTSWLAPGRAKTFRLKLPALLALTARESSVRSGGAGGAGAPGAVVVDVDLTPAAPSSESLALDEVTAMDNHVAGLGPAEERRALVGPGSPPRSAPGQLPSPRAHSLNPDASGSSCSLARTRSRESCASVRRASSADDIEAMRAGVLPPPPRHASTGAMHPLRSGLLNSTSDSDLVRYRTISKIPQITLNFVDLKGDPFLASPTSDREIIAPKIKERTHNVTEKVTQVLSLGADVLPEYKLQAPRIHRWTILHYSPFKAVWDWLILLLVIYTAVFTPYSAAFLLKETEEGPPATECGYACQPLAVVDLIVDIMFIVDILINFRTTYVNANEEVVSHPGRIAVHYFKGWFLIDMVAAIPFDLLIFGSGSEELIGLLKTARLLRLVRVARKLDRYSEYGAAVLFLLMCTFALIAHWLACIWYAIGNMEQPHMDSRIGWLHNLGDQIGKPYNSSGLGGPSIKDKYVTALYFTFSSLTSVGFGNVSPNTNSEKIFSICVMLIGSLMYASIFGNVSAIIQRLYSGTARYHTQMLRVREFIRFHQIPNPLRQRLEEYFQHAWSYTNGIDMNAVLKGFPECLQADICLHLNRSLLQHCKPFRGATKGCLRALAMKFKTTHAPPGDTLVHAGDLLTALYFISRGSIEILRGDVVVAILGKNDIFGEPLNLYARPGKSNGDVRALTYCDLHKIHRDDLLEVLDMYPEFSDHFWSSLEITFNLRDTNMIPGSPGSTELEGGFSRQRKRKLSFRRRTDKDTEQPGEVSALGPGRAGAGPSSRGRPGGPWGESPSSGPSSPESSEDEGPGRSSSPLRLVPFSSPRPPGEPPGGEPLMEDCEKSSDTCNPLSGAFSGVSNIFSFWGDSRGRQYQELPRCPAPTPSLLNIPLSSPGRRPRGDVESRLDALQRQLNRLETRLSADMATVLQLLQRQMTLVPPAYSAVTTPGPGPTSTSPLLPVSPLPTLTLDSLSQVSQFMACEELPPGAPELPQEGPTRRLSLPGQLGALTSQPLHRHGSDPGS
`O=C(N/N=C/c1ccccc1OCc1ccccc1)c1cccnc1`: the “hERG current change (%, negative = inhibition) at 10uM” value was -1.69%.
With `Cc1noc(C)c1COC(=O)c1ccc(S(=O)(=O)NCc2ccco2)cc1`, the “hERG current change (%, negative = inhibition) at 10uM” value is -20.4%.
Then `CCCNC(=O)NC(=O)CSc1nc(C)cs1`, with 4.1%.
Consider `NC(=S)N=Nc1c(O)n(CCCl)c2ccc(Br)cc12`, for which the “hERG current change (%, negative = inhibition) at 10uM” value is -27.4%.
With `O=C(COCC(=O)NCc1ccccc1)NCc1ccccc1` the figure was 5.28%.
With `Cn1cc([N+](=O)[O-])c(C(=O)Nc2ccc(Br)cn2)n1` the figure was -10.3%; with `Cc1ccc(NC(=O)COC(=O)c2cc(Cl)ccc2Cl)c(Br)c1`, 13.6%.
For the compound `Cc1cccc(CN2C(=O)/C(=C\c3ccc(C(=O)NCCN4CCOCC4)cc3)Sc3ccccc32)c1`, the “hERG current change (%, negative = inhibition) at 10uM” value is -9.27%.
With `CC(OC(=O)Cn1c(C(F)(F)F)nc2ccccc21)C(N)=O` (centres unmarked) the figure was 24.8%.
Regarding `CCc1cccc(NC(=O)C2CCN(S(=O)(=O)c3cccs3)CC2)c1`, the “hERG current change (%, negative = inhibition) at 10uM” value is on record as -12.4%.
Regarding `CNC(=O)c1cc2cc(OC)ccc2oc1=N`, the “hERG current change (%, negative = inhibition) at 10uM” value was found to be 10.4%.
`CCOC(=O)Cc1csc(NC(=O)CSc2ccc(Br)cc2)n1`: the “hERG current change (%, negative = inhibition) at 10uM” value is listed as -8.83%.
With `COc1cc(C(C)=O)ccc1OC(=O)c1cc2cccc(OC)c2oc1=O`, the “hERG current change (%, negative = inhibition) at 10uM” value is given as 2.53%.
Then `CCOc1cc(NC(=O)c2ccccn2)c(OCC)cc1NC(=O)c1ccc(Cl)cc1`, with 23.5%.
On to `O=C(COc1ccccc1Cl)c1ccc[nH]1`, for which the “hERG current change (%, negative = inhibition) at 10uM” value amounted to 12.4%.
Take `[O-]c1ccccc1-[n+]1c(-c2ccccc2)cc(-c2ccccc2)cc1-c1ccccc1`: the “hERG current change (%, negative = inhibition) at 10uM” value is listed as -71.1%.
Consider `COC(=O)C1=NN(c2cccc(C)c2)C2C(=O)N(c3ccccc3OC)C(=O)C12` (centres unmarked), for which the “hERG current change (%, negative = inhibition) at 10uM” value is recorded as -4.79%.
For the compound `CC(C)Cn1cnc2c(=O)oc3ccccc3c21`, the “hERG current change (%, negative = inhibition) at 10uM” value is reported as -4.03%.
For `Cc1ccc(C(=O)NCC(=O)NNC(=O)CN(C)S(=O)(=O)c2ccc(Cl)cc2)s1`, the “hERG current change (%, negative = inhibition) at 10uM” value is listed as -12.4%.
Regarding `Cc1cccc(CSc2nc3c(c(=O)[nH]2)CCC3)c1`, the “hERG current change (%, negative = inhibition) at 10uM” value is given as -9.45%.
For `COc1ccc(S(=O)(=O)Cc2ccc(C(=O)NCC(OC)OC)o2)cc1`, the “hERG current change (%, negative = inhibition) at 10uM” value worked out at 17.4%.
With `CCCc1sc(N)nc1-c1ccc(Cl)cc1` the figure was 7.25%; with `Cc1ccccc1Cc1c(C)nc2c(C(=O)NCc3ccc4c(c3)OCO4)cnn2c1C`, -1.79%; with `O=C(NCC(c1cccnc1)N1CCN(c2ccccc2)CC1)c1ccc2c(c1)OCO2` (centres unmarked), -26.5%.
For `O=C(NNC(=O)c1ccccc1Cl)c1ccc(-n2cncn2)c([N+](=O)[O-])c1`, the “hERG current change (%, negative = inhibition) at 10uM” value is recorded as 1.43%.
Then `O=C(CC1C(=O)N(c2ccc(Cl)cc2)C(=S)N1CCc1ccncc1)Nc1ccc(F)cc1` (centres unmarked), with -4.88%; and `Cc1cc(-c2nn(-c3ccccc3F)cc2CN2CCCC(CO)C2)c(C)s1` (centres unmarked), with -7.33%.
For `Cc1cc(CN(C)C)c(O)c(C2(C)CCCCC2)c1`, the “hERG current change (%, negative = inhibition) at 10uM” value turned out to be 5.11%.
Turning to `CC(Sc1ccc(S(=O)(=O)N(C)C)cn1)C(=O)NC1CCCC1` (centres unmarked), the “hERG current change (%, negative = inhibition) at 10uM” value is on record as -15.9%.
Consider `Cc1ccc(C#CC[N+]2(C)CCCCC2)cc1.[Br-]`, for which the “hERG current change (%, negative = inhibition) at 10uM” value is listed as 14%.
As for `C=CCn1c(SCC(=O)NC(=O)NC)nnc1C1CCCCC1`, the “hERG current change (%, negative = inhibition) at 10uM” value worked out at 37.5%.
As to `CC(C)CC(NC(=O)C(NC(=O)C1OC2OC(C)(C)OC2C2OC(C)(C)OC12)C(C)C)C(=O)O` (centres unmarked), the “hERG current change (%, negative = inhibition) at 10uM” value stood at 30.2%.
Turning to `Cc1ccc2sc(N(CCCN(C)C)C(=O)c3ccc(S(=O)(=O)N4CCCCCC4)cc3)nc2c1C.Cl`, the “hERG current change (%, negative = inhibition) at 10uM” value is on record as -23.4%.
In the case of `O=C(CCSc1nnc(-c2ccco2)o1)Nc1ccccc1`, the “hERG current change (%, negative = inhibition) at 10uM” value is on record as -9.27%.
As to `CC(C(=O)Nc1cc(Cl)cc(Cl)c1)N1CCCC1` (centres unmarked), the “hERG current change (%, negative = inhibition) at 10uM” value was -2.66%.
Regarding `O=[N+]([O-])c1ccc(N2CCN(c3ccc(F)cc3)CC2)cc1`, the “hERG current change (%, negative = inhibition) at 10uM” value is -17.9%.
Then `Cn1c(SCC(=O)N2CCCCC2)nnc1-c1ccc(S(=O)(=O)N2CCOCC2)cc1`, with -9.36%.
In the case of `CCN(CC)CCNC(=O)Cn1cnc2sc(C)c(S(=O)(=O)N3CCOCC3)c2c1=O`, the “hERG current change (%, negative = inhibition) at 10uM” value stood at 14.4%.
For `O=C(NC(CC1CCCCC1)C(=O)O)c1ccccc1` (centres unmarked), the “hERG current change (%, negative = inhibition) at 10uM” value is 11.9%.
For the compound `Fc1ccccc1Cc1noc(CN2CCN(C/C=C/c3ccccc3)CC2)n1`, the “hERG current change (%, negative = inhibition) at 10uM” value is given as -74%.
With `CCCn1c(CCc2ccccc2)nnc1SCC(=O)N1CCCC1` the figure was -19.7%; with `COc1ccc(C(=O)C2CCCN(S(=O)(=O)C(C)C)C2)c(C)c1` (centres unmarked), 3.51%; with `COc1cccc(C(=O)Nc2cccc3cccnc23)c1OC`, 21.8%.
`CCOc1ccc(C(=O)OCC(=O)N2CC(C)OC(C)C2)cc1OCC` (centres unmarked): the “hERG current change (%, negative = inhibition) at 10uM” value came out at 2.83%.
As for `O=C(c1ccco1)N1CCC(c2nc(-c3ccc(F)cc3)no2)CC1`, the “hERG current change (%, negative = inhibition) at 10uM” value is reported as -41.8%.
With `O=C(OCC(=O)N1CCc2ccccc21)c1ccccc1F` the figure was 5.65%; with `COc1ccc(-c2csc(Nc3cccnc3)n2)cc1OC`, 0.265%; with `COC(=O)c1ccc(N)c(N=CC2=C(O)CC(C)(C)CC2=O)c1`, -2.21%.
With `CC(=O)Nc1nccc(-c2cc(-c3ccccc3)no2)n1`, the “hERG current change (%, negative = inhibition) at 10uM” value is 9.44%.
Take `CN1CCN(S(=O)(=O)c2ccc3c(c2)C(C)(C)C(=O)N3C)CC1`: the “hERG current change (%, negative = inhibition) at 10uM” value worked out at 14.3%.
With `Nc1nc(-c2ccc(Cl)cc2)cn1N` the figure was -2.98%; with `Cn1c(C(=O)OCC(=O)NCCc2ccccc2)cc2sccc21`, 4.05%.
Then `CC1=NN(c2ccccc2)C(=O)/C1=C/c1c(O)n(-c2ccc(F)cc2)[nH]c1=O`, with 46%; and `COc1ccccc1C1CCN(C(=O)c2ccc(Cl)cc2)CC1`, with -22.8%; and `CCOc1ccc(N(CC(=O)Nc2nccs2)S(=O)(=O)c2c(C)noc2C)cc1`, with -5.98%.
As for `Cc1ccc(/C=C(/NC(=O)c2ccccc2)C(=O)NC(Cc2c[nH]c3ccccc23)C(=O)O)cc1` (centres unmarked), the “hERG current change (%, negative = inhibition) at 10uM” value stood at 12.8%.
Turning to `O=C(Nc1ccc2ncccc2c1)c1ccccc1Br`, the “hERG current change (%, negative = inhibition) at 10uM” value is 6.61%.
Then `CCOc1ccc(/C=N/NC(=O)c2cc3c(OC)cccc3[nH]2)cc1`, with 20.7%; and `CCN(CC)CC(=O)Nn1c(C)nc2c(ncn2-c2ccccc2)c1=O`, with 4.24%; and `CN(C)C1=NC(N(C)C)=NP(N(C)C)(N(C)C)=N1`, with 18.3%.
Consider `Cc1cc(C)n(CC(=O)n2c3c(c4ccccc42)CCCC3)n1`, for which the “hERG current change (%, negative = inhibition) at 10uM” value came to 14.7%.
With `COc1ccc(NS(=O)(=O)c2cccc(NC(=O)COc3ccc(OC)cc3)c2)cc1`, the “hERG current change (%, negative = inhibition) at 10uM” value is listed as 7.69%.
For `Cc1cccc(NC2=C(NCCO)C(=O)c3ccccc3C2=O)c1`, the “hERG current change (%, negative = inhibition) at 10uM” value was -25.4%.
With `CCOC(=O)c1c(C)[nH]c(C)c1C(=O)COC(=O)c1cccc(S(=O)(=O)NC)c1`, the “hERG current change (%, negative = inhibition) at 10uM” value is listed as -7.56%.
Turning to `CCCCCCSc1nsc(NC(C)=O)n1`, the “hERG current change (%, negative = inhibition) at 10uM” value was 4.73%.
Consider `CCN(CC)CCCN(Cc1cc2cc(OC)ccc2[nH]c1=O)C(=O)Nc1ccccc1`, for which the “hERG current change (%, negative = inhibition) at 10uM” value is given as -55.3%.
For `CCOC(=O)c1ccc(NC(=S)Nc2cccc(N)n2)cc1`, the “hERG current change (%, negative = inhibition) at 10uM” value is 8.76%.
As to `COC(=O)c1cc(C#N)c(Oc2ccccc2OC)nc1C`, the “hERG current change (%, negative = inhibition) at 10uM” value is on record as -9.54%.
As to `Cc1nc2c3ccccc3nc(NNC(=O)CCC(=O)N3CCC(C)CC3)n2n1`, the “hERG current change (%, negative = inhibition) at 10uM” value was found to be 0.182%.
Regarding `Cc1ccc(Cl)cc1-n1c(O)c(C=NCCCN2CCOCC2)c(=O)[nH]c1=O`, the “hERG current change (%, negative = inhibition) at 10uM” value turned out to be 12.1%.
Then `CC1Cc2ccccc2N1C(=S)NC(=O)c1ccc(Cl)cc1Cl` (centres unmarked), with 4.89%; and `Cc1nc(NCCc2ccccc2)sc1C(=O)N(C)C`, with 5.87%; and `Cc1[nH]nc(N)c1-c1ccc(Cl)cc1`, with 7.49%.
`CCN(C(=O)c1c(C)noc1C)c1c(N)n(Cc2ccccc2)c(=O)[nH]c1=O`: the “hERG current change (%, negative = inhibition) at 10uM” value was 4.33%.
Regarding `CN(C)c1cc[n+](CC(=O)Nc2cccc([N+](=O)[O-])c2)cc1.[Cl-]`, the “hERG current change (%, negative = inhibition) at 10uM” value stood at 30.7%.
As to `CCC(C)(C)NC(=O)c1cc(S(=O)(=O)N2CCCCC2)ccc1N1CCOCC1`, the “hERG current change (%, negative = inhibition) at 10uM” value was -13.4%.
On to `COc1ccccc1C(c1nnnn1C(C)(C)C)N1CCN(Cc2ccncc2)CC1` (centres unmarked), for which the “hERG current change (%, negative = inhibition) at 10uM” value is given as 3.11%.
As to `O=C(CSc1nnc(-c2ccccc2)n1-c1ccccc1)N1c2ccccc2Sc2ccccc21`, the “hERG current change (%, negative = inhibition) at 10uM” value is -4.79%.
Regarding `O=S(=O)(Nc1ccc(N2CCCCC2)cc1)c1ccccc1`, the “hERG current change (%, negative = inhibition) at 10uM” value is on record as -2.74%.
With `CCCCC[C@H]1CN(C2CCCCC2)C(=O)[C@@H]1CC(=O)NCc1ccccc1`, the “hERG current change (%, negative = inhibition) at 10uM” value is listed as -67.7%.
With `Nc1ccc(-n2nncc2-c2ccccc2)cc1`, the “hERG current change (%, negative = inhibition) at 10uM” value turned out to be 11.8%.
Consider `COc1cc(C(=O)Oc2ccc3ccc(O)cc3c2)cc(OC)c1OC`, for which the “hERG current change (%, negative = inhibition) at 10uM” value stood at 12.5%.
For the compound `COc1ccccc1C(=O)NCCC(=O)NC(C)CCc1ccccc1` (centres unmarked), the “hERG current change (%, negative = inhibition) at 10uM” value is -2.22%.
Consider `O=C1CCC(C(=O)N2CCCCCCC2)CN1Cc1cccc(C(F)(F)F)c1` (centres unmarked), for which the “hERG current change (%, negative = inhibition) at 10uM” value is given as -22.4%.
Take `CCC(C)[C@H](NC(=O)OC(C)(C)C)C(=O)N/N=C/C1=Cc2ccccc2OC1` (some centres unmarked): the “hERG current change (%, negative = inhibition) at 10uM” value is recorded as -20%.
For `COc1ccc(C(=O)N2CC3(C)C4CCC3(C)C2(C#N)C4)cc1OC` (centres unmarked), the “hERG current change (%, negative = inhibition) at 10uM” value is listed as 4.65%.
For the compound `C/C(CC1CC(C)OC1=O)=N\NC(N)=S` (centres unmarked), the “hERG current change (%, negative = inhibition) at 10uM” value is 10.5%.
`COc1cc(NC(=O)N[C@@H](Cc2c[nH]c3ccccc23)C(=O)O)c(C(=O)O)cc1OC`: the “hERG current change (%, negative = inhibition) at 10uM” value is 19%.
On to `CCOc1ccc(NC(=O)NC23CC4CC(CC(C4)C2)C3)cc1`, for which the “hERG current change (%, negative = inhibition) at 10uM” value was -9.59%.
